Laboratory results reported in PubChem BioAssay AID2675 (National Center for Advancing Translational Sciences (NCATS), 2010).
Out of some 280,000 compounds screened, about 100 (0.036%) were called active. The inconclusive results got no clear call from the source; some entries with a clear call stand among them for comparison. Calls follow the shape of the dose curve; as a rule, active = well fitted inhibition curve with a large enough effect in the signal ratio, with a control signal flat (not every such curve was filed as active); inconclusive = small, poorly fitted or top-dose-only effect, or effect the other way, or a change in a side signal; inactive = no such curve, though single readings can be large or run the other way; the % refers to the signal ratio. Potencies beside an inconclusive call are fits to weak or partial responses and may not hold up. “Side channel” marks fits to a control or component signal instead of the main read-out.

The compounds below were run against Muscleblind-like protein 1 (Homo sapiens) (UniProt Q9NR56) (assay: qHTS Assay for Inhibitors of MBNL1-poly(CUG) RNA binding). Conditions: TR-FRET MBNL1-His/biotin-(CUG)12 binding, 665/545 ratio; series mostly up to 57.5 µM.
Sequence of UniProt Q9NR56 (Q9NR56 whole entry, looked up): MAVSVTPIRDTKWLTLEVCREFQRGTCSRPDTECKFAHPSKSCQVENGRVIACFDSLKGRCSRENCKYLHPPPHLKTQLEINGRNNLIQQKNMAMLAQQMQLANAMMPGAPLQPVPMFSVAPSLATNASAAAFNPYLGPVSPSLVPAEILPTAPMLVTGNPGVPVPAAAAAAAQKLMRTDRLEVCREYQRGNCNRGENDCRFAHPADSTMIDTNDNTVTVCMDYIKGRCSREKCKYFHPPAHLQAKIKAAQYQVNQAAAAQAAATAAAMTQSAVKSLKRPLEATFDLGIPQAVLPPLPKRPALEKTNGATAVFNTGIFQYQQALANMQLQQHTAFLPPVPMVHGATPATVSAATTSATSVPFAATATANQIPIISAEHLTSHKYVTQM
Method in brief: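 His-tagged MBNL1 binding to biotinylated (CUG)12 RNA was measured by TR-FRET using terbium anti-His antibody (0.055 ng/ul final) and streptavidin-XL665 (5 nM final). Compounds were titrated 92 nM to 58 uM; 60 min at room temperature.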
Potency is read from the fitted curve at half-maximal effect; tags tell the direction and shape of the fitted curve or compound fluorescence and quenching.

Question: For `O=C(N/N=C/c1c(O)n(CCC2=CCCCC2)c(=O)[nH]c1=O)c1ccccc1`, which Potency is on record?
Answer: The Potency was “inactive”.

Question: For `O=C(NCC1CC1)c1cc([N+](=O)[O-])cc([N+](=O)[O-])c1`, which Potency is on record?
Answer: The Potency was inconclusive: 10 µM [quencher, side channel, partial curve].

Question: How did the Potency turn out when `CCN(CC)C(=O)Oc1ccc2ccccc2c1Cl` was run?
Answer: Its Potency is inconclusive: 10 µM [quencher, side channel, partial curve].

Question: Which Potency does the source give for `CCOc1ccc(OCC)c(NC(=O)CN2CCN(c3ccc(C)cc3C)CC2)c1` here?
Answer: Its Potency is inconclusive: 39.8 µM [quencher, side channel, partial curve].

Question: `CCN1CCN(c2ccc([N+](=O)[O-])cc2C(=O)OC)CC1` was tested. Which Potency did it give?
Answer: Its Potency is inconclusive: 25.1 µM [quencher, side channel, partial curve].

Question: `CCc1ccc(CNCCc2ccc(F)cc2)cc1` was tested. Which Potency did it give?
Answer: Its Potency is inconclusive: 0.1 µM [inhibitor, full curve, poor fit].

Question: How did the Potency turn out when `COc1ccc(CN2C(=O)NC(=O)/C(=C\c3ccco3)C2=O)cc1` was run?
Answer: The Potency was “inactive”.

Question: How did the Potency turn out when `Nc1ccc2c(c1)Cc1ccccc1-2` was run?
Answer: The Potency was “inactive”.

Question: How did the Potency turn out when `Cc1[nH]c2ccccc2c1CCCNC1CCCCC1` was run?
Answer: Its Potency is inconclusive: 6.31 µM [fluorescent, side channel, single point].

Question: Which Potency does the source give for `COc1cc2c(cc1OC)-c1c(OC)c(OC)c(OC)c3ccnc(c13)C2=O` here?
Answer: Its Potency is inconclusive: 4.47 µM [quencher, side channel, partial curve].

Question: `COc1ccc2c(c1)CC1(CN2C)C(=O)NC(=O)N(CCc2ccccc2)C1=O` (centres undefined) was tested. Which Potency did it give?
Answer: The Potency was “inactive”.

Question: For `CCC(=O)CC(c1ccccc1)c1c(O)c2ccccc2sc1=O` (centres undefined), which Potency is on record?
Answer: Its Potency is “inactive”.

Question: With `O=C(c1cc2cc(Cl)ccc2[nH]1)N1CCC2(CC1)OCCO2` as the compound, how does the Potency read?
Answer: Its Potency is “inactive”.

Question: For `CN1C(=O)C(=Cc2ccccc2OS(=O)(=O)c2ccccc2)C(=O)N(C)C1=O`, which Potency is on record?
Answer: Its Potency is “inactive”.

Question: With `Cc1[nH]n(-c2ccccc2)c(=O)c1C(c1ccc([N+](=O)[O-])cc1)c1c(C)[nH]n(-c2ccccc2)c1=O` as the compound, how does the Potency read?
Answer: Its Potency is inconclusive: 11.2 µM [quencher, side channel, partial curve].

Question: How did the Potency turn out when `Cc1cccc(N2CCc3c2nc2ccccc2c3N)c1` was run?
Answer: Its Potency is inconclusive: 15.8 µM [quencher, side channel, partial curve].

Question: For `Cc1cccc(OP(=O)(Nc2cccnc2)Oc2cccc(C)c2)c1`, which Potency is on record?
Answer: Its Potency is inconclusive: 3.55 µM [fluorescent, side channel, partial curve].

Question: For `Cc1cccnc1NC1=NCC(C)S1` (centres undefined), which Potency is on record?
Answer: The Potency was inconclusive: 39.8 µM [quencher, side channel, single point].

Question: `O=[N+]([O-])c1ccc(-[n+]2c(-c3ccccc3)cc(-c3ccccc3)cc2-c2ccccc2)cc1` was tested. Which Potency did it give?
Answer: The Potency was inconclusive: 15.8 µM [quencher, partial curve].

Question: `O=C1N=NC2=C1c1c3ccccc3c(O)n1CC2` was tested. Which Potency did it give?
Answer: The Potency was inconclusive: 11.2 µM [quencher, side channel, partial curve].

Question: `O=C(Oc1ccc(Cl)c2cccnc12)N1CCCCCC1` was tested. Which Potency did it give?
Answer: Its Potency is inconclusive: 3.98 µM [quencher, side channel, partial curve].

Question: For `Cc1ccc(/C=C2\C(=O)NC(=S)N(c3ccc(F)cc3)C2=O)o1`, which Potency is on record?
Answer: Its Potency is “inactive”.

Question: `Cc1ccsc1C(=O)C1CCCN(Cc2ccn[nH]2)C1` (centres undefined) was tested. Which Potency did it give?
Answer: Its Potency is “inactive”.

Question: Which Potency does the source give for `C/C(CC(=O)N1CCN(C=O)CC1)=N\NC(=O)c1cccc([N+](=O)[O-])c1` here?
Answer: The Potency was inconclusive: 20 µM [quencher, side channel, partial curve].

Question: `CCCCCCC[n+]1ccc(-c2cc[n+](CCCCCCC)cc2)cc1` was tested. Which Potency did it give?
Answer: The Potency was inconclusive: 12.6 µM [quencher, side channel, partial curve].

Question: Which Potency does the source give for `Cc1ccc(-c2cc(C(F)F)n3ncc(C(=O)N4CCC5(CC4)OCCO5)c3n2)cc1` here?
Answer: Its Potency is inconclusive: 14.1 µM [quencher, side channel, partial curve].

Question: How did the Potency turn out when `CCOc1ccc(N2C(=O)NC(=O)/C(=C\c3ccc(N4CCOCC4)cc3C)C2=O)cc1` was run?
Answer: Its Potency is inconclusive: 22.4 µM [quencher, side channel, single point].

Question: Which Potency does the source give for `O=[N+]([O-])c1cc(O)c(O)c([N+](=O)[O-])c1` here?
Answer: Its Potency is inconclusive: 11.2 µM [quencher, side channel, partial curve].

Question: Which Potency does the source give for `CCC(=NCCc1c[nH]c2ccccc12)c1c(O)n(-c2ccc(C)cc2)c(=O)[nH]c1=O` here?
Answer: The Potency was “inactive”.

Question: For `CCc1nn(CC(=O)N2CCC3(CC2)OCCO3)c(=O)c2cc3ccccc3n12`, which Potency is on record?
Answer: Its Potency is inconclusive: 22.4 µM [quencher, side channel, single point].

Question: `CN1CCc2nc3sc(C(=O)NC4CC4)c(N)c3cc2C1` was tested. Which Potency did it give?
Answer: Its Potency is inconclusive: 17.8 µM [quencher, side channel, partial curve].

Question: How did the Potency turn out when `O=c1[nH]c(=S)[nH]c(O)c1N=Nc1ccc2c(c1)OCO2` was run?
Answer: The Potency was inconclusive: 3.16 µM [quencher, side channel, full curve].

Question: With `Cc1nc2ccccc2c2c1C(=O)N(Cc1cccnc1)C2=O` as the compound, how does the Potency read?
Answer: The Potency was inconclusive: 12.6 µM [quencher, side channel, partial curve].

Question: For `O=Cc1cn(Cc2cccc([N+](=O)[O-])c2)c2ccccc12`, which Potency is on record?
Answer: Its Potency is inconclusive: 12.6 µM [quencher, side channel, partial curve].

Question: With `O=c1nc(/C=C/c2ccc(Cl)cc2Cl)cc(C(F)(F)F)[nH]1` as the compound, how does the Potency read?
Answer: Its Potency is inconclusive: 63.1 µM [inhibitor, single point].

Question: Which Potency does the source give for `CC(C)OCCCNC(=O)c1c(N)n(CC2CCCO2)c2nc3ccccc3nc12` (centres undefined) here?
Answer: The Potency was inconclusive: 25.1 µM [quencher, side channel, partial curve].

Question: `COc1ccc(-[n+]2c(-c3ccccc3)cc(-c3ccc(C)cc3)cc2-c2ccccc2)cc1` was tested. Which Potency did it give?
Answer: The Potency was inconclusive: 14.1 µM [quencher, partial curve].

Question: For `CCN(CC)S(=O)(=O)c1ccc(NN=C(C#N)C#N)cc1`, which Potency is on record?
Answer: The Potency was inconclusive: 14.1 µM [quencher, side channel, single point].

Question: How did the Potency turn out when `COc1ccc(CN2C(=O)NC(=O)/C(=C/c3ccc([N+](=O)[O-])s3)C2=O)cc1` was run?
Answer: Its Potency is inconclusive: 20 µM [quencher, side channel, partial curve].

Question: With `N#CC1=C(N)Oc2c(c(=O)oc3ccccc23)C1c1ccc(OC(=O)N2CCOCC2)cc1` (centres undefined) as the compound, how does the Potency read?
Answer: The Potency was inconclusive: 25.1 µM [quencher, side channel, single point].

Question: How did the Potency turn out when `Cc1ccccc1-n1c(C)nc2ccccc2c1=O` was run?
Answer: Its Potency is “inactive”.

Question: How did the Potency turn out when `CCN1CCN(Cc2cc(Br)ccc2O)CC1` was run?
Answer: Its Potency is “inactive”.

Question: How did the Potency turn out when `CCOc1cccc(=NC2CCCCC2)c2c(C)n(C)c(C)c12` was run?
Answer: The Potency was inconclusive: 12.6 µM [quencher, side channel, partial curve].

Question: With `CCCNC1=C(C)C(=O)C2=C(C1=O)C(COC(N)=O)[C@]1(OC)C3NC3CN21` (some centres undefined) as the compound, how does the Potency read?
Answer: Its Potency is inconclusive: 14.1 µM [quencher, side channel, partial curve].

Question: Which Potency does the source give for `Cc1ccc2nsnc2c1NS(=O)(=O)c1c(C)ccc2nsnc12` here?
Answer: Its Potency is inconclusive: 11.2 µM [quencher, side channel, partial curve].

Question: How did the Potency turn out when `Cc1ccc(Cn2nnnc2CN2CCC(n3nnc4cc(C(F)(F)F)ccc43)CC2)cc1` was run?
Answer: Its Potency is “inactive”.

Question: For `CN1CCN(Cc2ccccc2Sc2ccccc2)CC1`, which Potency is on record?
Answer: Its Potency is “inactive”.

Question: For `Nc1ccc(N=Nc2ccccc2)cc1`, which Potency is on record?
Answer: The Potency was inconclusive: 35.5 µM [quencher, side channel, single point].

Question: Which Potency does the source give for `O=C(NCC(c1cccnc1)N1CCN(c2ccccc2F)CC1)Oc1ccccc1` (centres undefined) here?
Answer: The Potency was “inactive”.
